Results from PubChem BioAssay AID360 (National Center for Advancing Translational Sciences (NCATS), 2006).
Among all 48,000 compounds or so, about 550 (1.1%) were called active. Another 4% or so got no clear call; they are omitted. Rule as the data show it: active = potency below about 15 µM; inconclusive = mostly about 16 µM to 33 µM; inactive = weaker than that. The list shows a part of the results.
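Also: the screen sought inhibitors.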
Potency is read from the fitted curve at half-maximal effect.

These compounds were tested against Lysosomal acid glucosylceramidase (Homo sapiens) (UniProt P04062) (assay: Glucocerebrosidase). Settings: purified enzyme, resorufin glucoside fluorescence (screen aimed at inhibitors), 20 min; series mostly up to 77 µM.
Chain of UniProt P04062 (P04062 whole entry, looked up): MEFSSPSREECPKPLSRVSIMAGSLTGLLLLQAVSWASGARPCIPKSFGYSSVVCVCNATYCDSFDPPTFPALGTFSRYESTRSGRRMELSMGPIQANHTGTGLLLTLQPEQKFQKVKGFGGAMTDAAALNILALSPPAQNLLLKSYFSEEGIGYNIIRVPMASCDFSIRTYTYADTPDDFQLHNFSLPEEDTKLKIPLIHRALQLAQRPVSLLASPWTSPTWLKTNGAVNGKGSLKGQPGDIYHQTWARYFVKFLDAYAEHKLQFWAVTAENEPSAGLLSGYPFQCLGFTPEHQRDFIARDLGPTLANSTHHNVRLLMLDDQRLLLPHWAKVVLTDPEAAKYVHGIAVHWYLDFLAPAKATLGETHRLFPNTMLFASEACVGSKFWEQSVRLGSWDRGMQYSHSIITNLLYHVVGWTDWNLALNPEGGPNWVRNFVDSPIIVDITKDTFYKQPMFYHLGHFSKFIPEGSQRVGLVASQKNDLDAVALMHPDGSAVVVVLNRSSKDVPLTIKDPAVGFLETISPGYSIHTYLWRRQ
Outline: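 Wild-type enzyme at 0.2 nM final in 50mM citric acid/KH2PO4, 10mM sodium taurocholate, 0.01% tween-20, pH 5.9, with resorufin beta-D-glucopyranoside at 30 uM final. Compounds titrated, 20 min at RT, red fluorescence read; AC50 from titration.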
With O=C(Nc1nccs1)c1ccc2nccnc2c1 the Potency was inactive: > 76.9 µM.
In the case of CCOc1ccccc1-n1c(SCC(=O)NC(C)(C)C)nnc1-c1ccoc1C, the Potency is reported as inactive: > 76.9 µM.
Cc1ccc(S(=O)(=O)Cn2nnnc2C(c2ccc(F)cc2)N2CCC(C(N)=O)CC2)cc1 (stereo unspecified) was tested, and the Potency was inactive: > 76.9 µM.
O=C(CCN1C(=O)c2ccccc2C1=O)Nn1cnnc1 was tested, and the Potency was inactive: > 76.9 µM.
CCOCCCNC(=O)c1c(-c2ccccc2)noc1C was tested, and the Potency was inactive: > 76.9 µM.
O=C(CC(O)(c1ccccc1)C(F)(F)C(F)F)c1cccs1 (stereo unspecified) was tested, and the Potency was inactive: > 76.9 µM.
With CN(c1ccc(C(=O)NCCSCc2ccco2)cc1)S(C)(=O)=O the Potency was “inactive”.
For COc1ccc(NC(=O)c2ccco2)cc1NC(=O)c1cccnc1, the Potency was inactive: > 76.9 µM.
In the case of CCCCNC(=O)c1ccc2c(c1)ncn2C1CCCCC1, the Potency is reported as inactive: > 76.9 µM.
With CCOc1cc(S(=O)(=O)n2cc(-c3ccc(F)cc3)c(N)n2)cc(OCC)c1OCC the Potency was inactive: > 76.9 µM.
Cc1cc(=O)oc2ccc(OCC(=O)N(Cc3ccc(F)cc3)Cc3ccco3)cc12 was tested, and the Potency was inactive: > 76.9 µM.
In the case of CCOC(=O)c1[nH]c(C)c(C(=O)NC(C)(C)C)c1C, the Potency is reported as inactive: > 76.9 µM.
Cc1csc(NC(=O)CSc2nnc(C)n2Cc2ccco2)n1 was tested, and the Potency was inactive: > 76.9 µM.
CCN(CC)CC(=O)c1c[nH]c2ccccc12 was tested, and the Potency was inactive: > 76.9 µM.
For C/C(O)=C(\C#N)c1nnc2n1CCCCC2, the Potency was inactive: > 76.9 µM.
In the case of CC(C)(C)NC(=O)Cn1cc(C#N)c2cc(Br)ccc21, the Potency is reported as inactive: > 76.9 µM.
COc1ccc(C(=O)CSc2nn3c(=O)c(C(C)(C)C)nnc3s2)cc1 was tested, and the Potency was inactive: > 76.9 µM.
With O=C(NCCC1=CCCCC1)N[C@@H](Cc1ccccc1)C(=O)O the Potency was inactive: > 76.9 µM.
O=C1Nc2ccc(S(=O)(=O)NCCC3=CCCCC3)c3cccc1c23 was tested, and the Potency was inactive: > 76.9 µM.
Cc1nn(-c2ccccc2)c2c1C1(C(=O)N(C)c3ccccc31)C(C#N)=C(N)O2 (stereo unspecified) was tested, and the Potency was inactive: > 76.9 µM.
CCOC(=O)Nc1cc(C(=O)OC)cc(C(=O)OC)c1 was tested, and the Potency was inactive: > 76.9 µM.
With CCN1CCN(c2ccc(NC(=O)c3cccnc3)cc2Cl)CC1 the Potency was active: 6.35 µM.
CCn1c(SCC(=O)NCCc2ccccc2)nnc1-c1cccs1 was tested, and the Potency was inactive: > 76.9 µM.
For CCOC(=O)N1CCN(c2nc(-c3ccco3)cc(C(F)(F)F)n2)CC1, the Potency was “inactive”.
For NC(=O)c1ccc2c(c1)OCCO2, the Potency was inactive: > 76.9 µM.
For Cc1ccccc1N(C(=O)Cn1nnc2ccccc21)C(C(=O)NCc1ccco1)c1ccncc1 (stereo unspecified), the Potency was inactive: > 76.9 µM.
For S=c1[nH]nc(COc2ccc(Cl)cc2)o1, the Potency was inactive: > 76.9 µM.
For CCOCCCNC(=O)c1ccc2c(c1)OCO2, the Potency was inactive: > 76.9 µM.
For CCCOc1ccc(C(=O)N2CCCc3ccccc32)cc1, the Potency was inactive: > 76.9 µM.
For O=C(COC(=O)c1cc[n+]([O-])cc1)Nc1ccc2c(c1)OCCO2, the Potency was inactive: > 76.9 µM.
O=C(NC1CCCC1)C(c1ccsc1)N(Cc1ccco1)C(=O)Cc1cccs1 (stereo unspecified) was tested, and the Potency was inactive: > 76.9 µM.
In the case of CC(OC(=O)c1nsc(Cl)c1Cl)C(=O)NCc1cccs1 (stereo unspecified), the Potency is reported as inactive: > 76.9 µM.
With Cn1c(Cc2ccc3c(c2)OCO3)nnc1SCC(=O)N1CCc2ccccc2C1 the Potency was inactive: > 76.9 µM.
With O=C(CN1C(=O)c2ccccc2S1(=O)=O)Nc1ccc(S(=O)(=O)N2CCCCC2)cc1 the Potency was inactive: > 76.9 µM.
With CCn1c(CC(=O)Nc2cccc(OC)c2)nnc1SCC(=O)N1CCN(c2ccccc2)CC1 the Potency was inactive: > 76.9 µM.
In the case of COc1ccc(N2CC(O)=C(c3nc(C)cs3)C2=N)cc1, the Potency is reported as inactive: > 76.9 µM.
With CCCCOC(=O)N1CCOCCOCCN(C(=O)OCCCC)CCOCCOCC1 the Potency was inactive: > 76.9 µM.
In the case of NCCCNC(=O)c1cc2ccccc2[nH]1, the Potency is reported as inactive: > 76.9 µM.
With CCOC(=O)N1CCC(NCCNC(=O)c2ccc(Cl)cc2)CC1 the Potency was inactive: > 76.9 µM.
For CCOC(=O)N1CCN(S(=O)(=O)c2ccc3c(c2)oc(=O)n3C)CC1, the Potency was inactive: > 76.9 µM.
For CCSc1nnc(NC(=O)c2ccc3c(c2)OCO3)s1, the Potency was inactive: > 76.9 µM.
With CC(C)(C)NC(=O)CSc1nnc(CN2CCCCCC2=O)n1-c1ccccn1 the Potency was inactive: > 76.9 µM.
For Cc1ccc(-n2ncc3c2ncn2nc(-c4ccco4)nc32)c(C)c1, the Potency was inactive: > 76.9 µM.
For O=C(NCCCN1CCN(CCCNC(=O)c2ccc3c(c2)OCO3)CC1)c1ccc2c(c1)OCO2, the Potency was inactive: > 76.9 µM.
Cc1ccc(CCNC(=O)CN2CCN(Cc3ccccc3F)C2=O)cc1 was tested, and the Potency was inactive: > 76.9 µM.
O=C(/C=N/O)NCC1CCNCC1 was tested, and the Potency was inactive: > 76.9 µM.
For Cc1ccc(S(=O)(=O)NC(=O)Nc2ccc(Cl)cn2)cc1, the Potency was inactive: > 76.9 µM.
COc1cccc(C(=O)Nc2ccc(C)cc2)c1 was tested, and the Potency was inactive: > 76.9 µM.
Cc1nc(=O)c(-c2ccccc2)c(C)n1-c1ccccc1C(=O)O was tested, and the Potency was inactive: > 76.9 µM.
Cc1cc(C)n2cc(CSC3=NCCS3)nc2n1 was tested, and the Potency was inactive: > 76.9 µM.
For O=C(Nc1ccc(Cl)cc1)N(Cc1nnc2n1CCCCC2)c1ccccc1, the Potency was inactive: > 76.9 µM.
For CCC(=O)N1c2ccc(S(=O)(=O)CCC(=O)NCc3ccc4c(c3)OCO4)cc2CC1C (stereo unspecified), the Potency was inactive: > 76.9 µM.
O=C(CCS(=O)(=O)Cc1ccccc1)NCC1CCCO1 (stereo unspecified) was tested, and the Potency was inactive: > 76.9 µM.
With O=C(Cc1ccccc1)Nc1ccc2oc(-c3cccnc3)nc2c1 the Potency was inactive: > 76.9 µM.
With Cc1nc2ncnn2c(Nc2ccc3c(c2)OCCO3)c1C the Potency was inactive: > 76.9 µM.
COc1ccccc1C(c1nnnn1C(C)(C)C)N1CCN(C(=O)c2ccco2)CC1 (stereo unspecified) was tested, and the Potency was inactive: > 76.9 µM.
COc1ccc(-c2cc(C(F)(F)F)nc(N3CCN(c4ccccc4)CC3)n2)cc1OC was tested, and the Potency was inactive: > 76.9 µM.
In the case of CN(Cc1nc(-c2cccnc2)no1)S(=O)(=O)c1ccccc1, the Potency is reported as inactive: > 76.9 µM.
In the case of CCc1ccc2oc(=O)cc(CN3CCCCC3C)c2c1 (stereo unspecified), the Potency is reported as inactive: > 76.9 µM.
CC(=O)c1cc(-c2ccccc2)n(CC(=O)N2CCC(N3CCCCC3)CC2)c1C was tested, and the Potency was inactive: > 76.9 µM.
For COC(=O)COc1ccc(S(=O)(=O)NCc2cccnc2)cc1C, the Potency was inactive: > 76.9 µM.
CC1(C)OC(=O)C(=CNc2ccccc2)C(=O)O1 was tested, and the Potency was inactive: > 76.9 µM.
In the case of COCCCN1C(=O)c2ccc(C(=O)NCc3ccco3)cc2C1=O, the Potency is reported as inactive: > 76.9 µM.
With CS(=O)(=O)N(CC(=O)NC1CC1)c1cccc(F)c1 the Potency was inactive: > 76.9 µM.
COc1ccccc1-c1cn(S(=O)(=O)c2ccc(C)cc2)nc1N was tested, and the Potency was inactive: > 76.9 µM.
CCS(=O)(=O)N1CCCC(C(=O)NCc2cccnc2)C1 (stereo unspecified) was tested, and the Potency was inactive: > 76.9 µM.
In the case of CSc1ccn(CCC(=O)O)c(=O)n1, the Potency is reported as inactive: > 76.9 µM.
In the case of Cn1c(CSc2ncccn2)nnc1SCC(=O)N1CCCCC1, the Potency is reported as inactive: > 76.9 µM.
In the case of Cc1nnc(SCCn2c(N3CCN(C)CC3)nc3c2c(=O)n(C)c(=O)n3C)s1, the Potency is reported as inactive: > 76.9 µM.
For Cc1cccc(C)c1NC(=O)C1(N(Cc2ccco2)C(=O)CC2NC(=O)NC2=O)CCCCC1 (stereo unspecified), the Potency was inactive: > 76.9 µM.
With COc1ccc(C2C(C(=O)Nc3cccc(C)n3)c3ccccc3C(=O)N2C)cc1OC (stereo unspecified) the Potency was inactive: > 76.9 µM.
COc1ccccc1N1CCN(C(=O)C(NS(=O)(=O)c2cccs2)c2ccccc2)CC1 (stereo unspecified) was tested, and the Potency was inactive: > 76.9 µM.
For CCOC(=O)Nc1cccc(OCC(=O)Nc2ccccc2OC)c1, the Potency was inactive: > 76.9 µM.
Cc1nc2ccc(S(=O)(=O)NCC(=O)N3CCCCC3)cc2s1 was tested, and the Potency was inactive: > 76.9 µM.
In the case of Nc1ccc(Cl)c(NC(=O)c2cccs2)c1, the Potency is reported as inactive: > 76.9 µM.
O=C(OCCN1CCOCC1)C(c1ccccc1)c1ccccc1 was tested, and the Potency was inactive: > 76.9 µM.
COc1ccc(NC(=O)Cn2nnc(-c3ccccc3F)n2)cc1Cl was tested, and the Potency was inactive: > 76.9 µM.
With CCOC(=O)c1c(N)sc(C(O)(C(F)(F)F)C(F)(F)F)c1-c1ccc(OC)cc1OC the Potency was inactive: > 76.9 µM.
For CC1CCN(c2ncccc2C(=O)O)CC1, the Potency was inactive: > 76.9 µM.
COC(=O)c1cccc(S(=O)(=O)N2CCC(NC(=O)Nc3cccc(F)c3)CC2)c1 was tested, and the Potency was inactive: > 76.9 µM.
In the case of O=C(COc1ccc(CO)cc1)Nc1ccc(F)cc1, the Potency is reported as inactive: > 76.9 µM.
In the case of COc1ccc(-n2c(SC3CCOC3=O)nc3ccccc3c2=O)cc1OC (stereo unspecified), the Potency is reported as inactive: > 76.9 µM.
For O=C(c1ccc(Cl)s1)N1CCc2ccccc21, the Potency was inactive: > 76.9 µM.
CNC(=O)NC(=O)CSc1nc2cc(C(=O)OC)ccc2c(=O)n1-c1ccccc1 was tested, and the Potency was inactive: > 76.9 µM.
In the case of Cc1cc(C)n(-c2nc3c(c(=O)[nH]c(=O)n3C)n2CC(O)COc2ccccc2C)n1 (stereo unspecified), the Potency is reported as inactive: > 76.9 µM.
In the case of Cc1ccc(NC(=O)N2CCC(NC(=O)c3ccccc3C)CC2)cc1, the Potency is reported as inactive: > 76.9 µM.
With O=C(c1ccco1)N1CCN(C(=O)c2cc3c(=O)oc4ccccc4c3s2)CC1 the Potency was inactive: > 76.9 µM.
For Cc1nn(Cc2ccccc2)c(C)c1NC(=O)c1cc(-c2ccc3c(c2)OCO3)on1, the Potency was inactive: > 76.9 µM.
For Cn1nc(CC(=O)Nc2cccc3ncccc23)c2ccccc2c1=O, the Potency was inactive: > 76.9 µM.
With CC(=O)Nc1ccc(S(=O)(=O)N(C)CC(=O)Nc2ccccc2N2CCOCC2)cc1 the Potency was inactive: > 76.9 µM.
For COc1c(F)c(F)c(C(=O)Nc2ccccc2N2CCN(C(C)=O)CC2)c(F)c1F, the Potency was inactive: > 76.9 µM.
